Measured values taken from PMC11251167.
Results are given in words; binding and its absence hold for the method and conditions named. In cells and extracts the contact can be indirect. Some results given as binding are weak or reduced against the parent protein; the word gives no strength. One block for each substance: values may come before it.

Chains of the proteins cited; added tags and fusions are not shown. Lines headed by an entry give the natural chain unless they say otherwise; changes in a name come on top.
UniProt Q61656: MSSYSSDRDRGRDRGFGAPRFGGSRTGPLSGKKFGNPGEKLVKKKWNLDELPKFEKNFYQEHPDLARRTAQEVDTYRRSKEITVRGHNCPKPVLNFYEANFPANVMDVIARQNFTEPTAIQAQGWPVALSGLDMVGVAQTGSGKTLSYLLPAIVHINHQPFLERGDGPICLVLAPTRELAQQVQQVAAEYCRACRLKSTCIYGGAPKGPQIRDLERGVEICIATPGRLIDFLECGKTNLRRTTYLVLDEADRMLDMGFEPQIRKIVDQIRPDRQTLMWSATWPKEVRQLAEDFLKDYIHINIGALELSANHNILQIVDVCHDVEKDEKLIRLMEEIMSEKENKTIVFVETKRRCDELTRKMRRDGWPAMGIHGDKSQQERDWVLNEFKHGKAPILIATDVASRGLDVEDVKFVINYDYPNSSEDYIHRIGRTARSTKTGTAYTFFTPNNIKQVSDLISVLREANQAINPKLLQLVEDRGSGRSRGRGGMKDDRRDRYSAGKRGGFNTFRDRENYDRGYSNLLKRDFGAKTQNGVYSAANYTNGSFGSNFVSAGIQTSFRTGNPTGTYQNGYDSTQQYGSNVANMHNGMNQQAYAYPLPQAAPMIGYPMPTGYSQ
UniProt O70133: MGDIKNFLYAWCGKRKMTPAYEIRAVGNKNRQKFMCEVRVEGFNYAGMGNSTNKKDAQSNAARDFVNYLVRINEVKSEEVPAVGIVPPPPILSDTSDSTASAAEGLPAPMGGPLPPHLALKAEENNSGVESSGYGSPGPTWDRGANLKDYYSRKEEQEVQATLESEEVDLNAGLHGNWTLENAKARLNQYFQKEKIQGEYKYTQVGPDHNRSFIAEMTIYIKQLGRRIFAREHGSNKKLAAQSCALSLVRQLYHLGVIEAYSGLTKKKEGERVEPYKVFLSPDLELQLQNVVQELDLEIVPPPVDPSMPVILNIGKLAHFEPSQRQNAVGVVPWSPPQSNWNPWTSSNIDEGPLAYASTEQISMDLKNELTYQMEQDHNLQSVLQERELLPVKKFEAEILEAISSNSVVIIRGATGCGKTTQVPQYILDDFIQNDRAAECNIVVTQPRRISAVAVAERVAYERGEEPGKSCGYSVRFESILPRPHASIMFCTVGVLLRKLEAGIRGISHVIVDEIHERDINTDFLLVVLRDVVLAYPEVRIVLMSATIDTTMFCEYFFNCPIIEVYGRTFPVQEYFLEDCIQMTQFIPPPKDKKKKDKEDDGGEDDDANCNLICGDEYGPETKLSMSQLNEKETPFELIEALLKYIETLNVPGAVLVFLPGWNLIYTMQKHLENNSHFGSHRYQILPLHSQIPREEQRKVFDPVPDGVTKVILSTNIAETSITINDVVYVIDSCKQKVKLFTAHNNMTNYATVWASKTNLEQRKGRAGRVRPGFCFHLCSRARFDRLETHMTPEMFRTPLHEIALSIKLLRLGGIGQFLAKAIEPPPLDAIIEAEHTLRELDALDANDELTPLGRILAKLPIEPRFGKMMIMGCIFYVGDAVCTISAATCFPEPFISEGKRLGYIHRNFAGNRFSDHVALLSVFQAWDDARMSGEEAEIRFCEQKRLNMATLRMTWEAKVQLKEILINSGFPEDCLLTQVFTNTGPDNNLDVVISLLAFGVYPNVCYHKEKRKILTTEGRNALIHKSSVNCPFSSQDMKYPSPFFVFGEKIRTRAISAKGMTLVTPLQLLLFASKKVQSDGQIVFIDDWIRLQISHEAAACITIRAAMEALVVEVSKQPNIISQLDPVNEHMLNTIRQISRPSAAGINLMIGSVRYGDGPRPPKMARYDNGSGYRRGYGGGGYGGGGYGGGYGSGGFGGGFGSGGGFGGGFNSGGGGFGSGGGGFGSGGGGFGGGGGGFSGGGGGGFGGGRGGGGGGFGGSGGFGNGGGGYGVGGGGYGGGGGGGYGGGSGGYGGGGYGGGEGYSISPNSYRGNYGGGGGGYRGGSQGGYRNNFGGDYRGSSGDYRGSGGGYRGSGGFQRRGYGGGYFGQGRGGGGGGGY
UniProt Q9CWV1: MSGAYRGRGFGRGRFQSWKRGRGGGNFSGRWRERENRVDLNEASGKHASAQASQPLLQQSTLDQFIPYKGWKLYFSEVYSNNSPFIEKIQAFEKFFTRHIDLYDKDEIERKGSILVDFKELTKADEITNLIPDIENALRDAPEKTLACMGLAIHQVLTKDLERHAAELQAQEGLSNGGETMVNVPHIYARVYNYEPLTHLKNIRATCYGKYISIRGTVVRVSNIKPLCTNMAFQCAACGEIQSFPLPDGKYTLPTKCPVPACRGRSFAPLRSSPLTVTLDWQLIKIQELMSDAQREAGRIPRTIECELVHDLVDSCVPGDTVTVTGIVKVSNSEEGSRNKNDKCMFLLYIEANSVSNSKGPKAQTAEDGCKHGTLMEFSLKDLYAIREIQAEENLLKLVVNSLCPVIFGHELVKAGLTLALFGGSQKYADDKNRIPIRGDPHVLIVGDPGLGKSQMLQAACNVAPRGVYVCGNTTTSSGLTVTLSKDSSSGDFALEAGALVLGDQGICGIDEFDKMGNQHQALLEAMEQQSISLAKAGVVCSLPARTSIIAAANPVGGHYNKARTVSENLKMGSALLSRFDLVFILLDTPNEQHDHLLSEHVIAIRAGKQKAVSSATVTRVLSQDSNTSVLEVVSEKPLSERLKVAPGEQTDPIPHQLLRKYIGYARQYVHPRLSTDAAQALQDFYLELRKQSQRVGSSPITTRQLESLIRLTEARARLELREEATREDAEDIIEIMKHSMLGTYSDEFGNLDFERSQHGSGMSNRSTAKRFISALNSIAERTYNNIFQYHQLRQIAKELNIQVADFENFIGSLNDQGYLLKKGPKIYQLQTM
UniProt Q9UJA3: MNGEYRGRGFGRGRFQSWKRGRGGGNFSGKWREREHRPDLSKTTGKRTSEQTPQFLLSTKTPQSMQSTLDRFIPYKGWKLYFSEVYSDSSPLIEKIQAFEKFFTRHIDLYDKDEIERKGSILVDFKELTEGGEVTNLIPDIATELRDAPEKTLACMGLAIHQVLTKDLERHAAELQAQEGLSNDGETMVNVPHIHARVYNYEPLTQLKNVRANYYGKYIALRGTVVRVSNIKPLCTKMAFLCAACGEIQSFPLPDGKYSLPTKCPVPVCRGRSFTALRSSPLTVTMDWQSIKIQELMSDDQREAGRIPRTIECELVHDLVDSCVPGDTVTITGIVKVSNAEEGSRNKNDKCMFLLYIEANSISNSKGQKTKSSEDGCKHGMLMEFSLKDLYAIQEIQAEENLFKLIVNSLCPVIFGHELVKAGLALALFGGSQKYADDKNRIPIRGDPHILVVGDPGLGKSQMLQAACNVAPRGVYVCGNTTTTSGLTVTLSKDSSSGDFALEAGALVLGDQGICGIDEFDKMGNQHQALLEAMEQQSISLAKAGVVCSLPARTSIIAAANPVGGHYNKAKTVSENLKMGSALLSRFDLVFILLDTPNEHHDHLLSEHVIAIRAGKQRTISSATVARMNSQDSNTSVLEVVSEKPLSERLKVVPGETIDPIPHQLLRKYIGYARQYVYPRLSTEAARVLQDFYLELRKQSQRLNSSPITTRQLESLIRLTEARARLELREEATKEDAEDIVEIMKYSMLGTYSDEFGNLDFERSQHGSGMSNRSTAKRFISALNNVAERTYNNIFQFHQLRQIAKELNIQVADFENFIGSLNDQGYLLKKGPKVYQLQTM
UniProt Q2KHI9: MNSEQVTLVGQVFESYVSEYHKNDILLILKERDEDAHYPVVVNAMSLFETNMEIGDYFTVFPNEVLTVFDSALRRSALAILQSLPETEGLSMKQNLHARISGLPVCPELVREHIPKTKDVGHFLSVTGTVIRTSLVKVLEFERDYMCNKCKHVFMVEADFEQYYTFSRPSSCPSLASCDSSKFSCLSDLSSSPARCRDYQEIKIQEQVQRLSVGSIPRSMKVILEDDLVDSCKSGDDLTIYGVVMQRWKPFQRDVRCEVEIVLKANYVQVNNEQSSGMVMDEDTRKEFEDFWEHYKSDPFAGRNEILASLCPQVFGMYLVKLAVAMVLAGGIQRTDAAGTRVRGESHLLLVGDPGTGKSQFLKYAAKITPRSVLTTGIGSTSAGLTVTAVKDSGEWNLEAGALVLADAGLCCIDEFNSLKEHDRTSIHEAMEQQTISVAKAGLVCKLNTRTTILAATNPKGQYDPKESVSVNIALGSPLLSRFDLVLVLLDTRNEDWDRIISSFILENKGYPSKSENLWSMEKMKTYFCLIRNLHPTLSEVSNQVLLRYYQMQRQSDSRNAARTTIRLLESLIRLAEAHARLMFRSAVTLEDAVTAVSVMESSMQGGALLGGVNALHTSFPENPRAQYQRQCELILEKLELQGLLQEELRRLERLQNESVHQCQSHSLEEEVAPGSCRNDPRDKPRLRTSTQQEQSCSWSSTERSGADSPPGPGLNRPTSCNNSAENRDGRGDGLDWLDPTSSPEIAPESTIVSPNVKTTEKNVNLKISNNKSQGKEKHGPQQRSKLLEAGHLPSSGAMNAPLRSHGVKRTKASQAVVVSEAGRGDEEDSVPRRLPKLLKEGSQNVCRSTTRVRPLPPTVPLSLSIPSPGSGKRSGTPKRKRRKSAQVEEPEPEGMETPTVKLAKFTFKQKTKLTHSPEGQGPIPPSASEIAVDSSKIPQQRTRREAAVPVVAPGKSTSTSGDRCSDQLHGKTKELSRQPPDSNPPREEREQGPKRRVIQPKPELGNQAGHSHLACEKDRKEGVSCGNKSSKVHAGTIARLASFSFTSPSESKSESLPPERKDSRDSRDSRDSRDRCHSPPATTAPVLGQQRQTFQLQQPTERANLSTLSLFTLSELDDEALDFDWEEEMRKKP
UniProt P17918: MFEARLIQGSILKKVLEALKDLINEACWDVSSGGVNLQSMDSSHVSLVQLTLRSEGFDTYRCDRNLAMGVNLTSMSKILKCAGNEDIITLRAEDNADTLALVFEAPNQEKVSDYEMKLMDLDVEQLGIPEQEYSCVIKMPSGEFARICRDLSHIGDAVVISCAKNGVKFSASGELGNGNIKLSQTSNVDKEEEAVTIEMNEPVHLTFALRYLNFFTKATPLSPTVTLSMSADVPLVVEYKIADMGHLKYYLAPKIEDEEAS
UniProt P17844: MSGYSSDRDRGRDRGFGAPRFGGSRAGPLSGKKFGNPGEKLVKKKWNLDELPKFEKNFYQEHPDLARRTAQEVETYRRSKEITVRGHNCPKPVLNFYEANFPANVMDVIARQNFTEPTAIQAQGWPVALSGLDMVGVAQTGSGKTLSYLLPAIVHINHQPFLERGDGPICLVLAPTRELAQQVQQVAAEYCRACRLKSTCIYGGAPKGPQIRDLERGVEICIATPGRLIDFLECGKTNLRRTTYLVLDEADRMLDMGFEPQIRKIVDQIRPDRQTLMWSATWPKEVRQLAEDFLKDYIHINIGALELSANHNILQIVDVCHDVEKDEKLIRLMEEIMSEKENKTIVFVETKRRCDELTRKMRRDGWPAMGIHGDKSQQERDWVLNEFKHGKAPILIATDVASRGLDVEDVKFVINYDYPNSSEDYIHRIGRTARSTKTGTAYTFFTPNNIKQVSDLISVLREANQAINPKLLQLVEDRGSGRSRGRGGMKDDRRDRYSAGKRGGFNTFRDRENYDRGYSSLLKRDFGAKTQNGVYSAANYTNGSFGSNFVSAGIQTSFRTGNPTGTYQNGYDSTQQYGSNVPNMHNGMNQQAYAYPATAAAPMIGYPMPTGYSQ

Legend:
[1] = target: DDX5, mouse, endogenous (mouse (endogenous in P19 cells and E12.5 PGCs)) (UniProt Q61656); assay: co-IP; endogenous proteins, P19 cell lysates (Pierce IP lysis buffer, sonicated), antibody against the bait overnight at 4 °C, protein A/G beads, western blot; IgG as negative control
[2] = target: DHX9, mouse, endogenous (mouse (endogenous in P19 cells and E12.5 PGCs)) (UniProt O70133); assay: as above
[3] = target: MCM8 (Minichromosome Maintenance 8 Homologous Recombination Repair Factor), mouse, endogenous (mouse (endogenous in P19 cells and E12.5 PGCs)) (UniProt Q9CWV1); assay: as above
[4] = target: MCM8, human, endogenous (human (endogenous in HEK293)) (UniProt Q9UJA3); assay: co-IP; endogenous MCM8 precipitated from WT or MCM8 KO HEK293 cell lysates, western blot; IgG and KO cells as negative controls
[5] = target: MCM8 p.E341K (rs16991615) (human) (UniProt Q9UJA3); assay: co-IP; MCM8 knockout HEK293 cells overexpressing MYC-DDX5 and empty vector, WT, p.E341K, p.R309* or p.S492* MCM8, western blot
[6] = target: HA-MCM8, full length, wild type (human) (UniProt Q9UJA3); assay: as above
[7] = target: MCM8 (Minichromosome Maintenance 8 Homologous Recombination Repair Factor), mouse, endogenous (mouse (endogenous in P19 cells and E12.5 PGCs)) (UniProt Q9CWV1); assay: co-IP; endogenous MCM8 precipitated from lysates of E12.5 PGCs (STELLA-EGFP positive) isolated by FACS, western blot; IgG as negative control
[8] = target: MCM9, mouse, endogenous (mouse (endogenous in P19 cells)) (UniProt Q2KHI9); assay: co-IP; endogenous proteins, P19 cell lysates (Pierce IP lysis buffer, sonicated), antibody against the bait overnight at 4 °C, protein A/G beads, western blot; IgG as negative control

binding [1]: binds | binding [2]: binds
Substance: MCM8 (Minichromosome Maintenance 8 Homologous Recombination Repair Factor), mouse, endogenous (from UniProt Q9CWV1 1-833)

binding [3]: no binding
Substance: PCNA, mouse, endogenous (from UniProt P17918 1-261)

binding [4]: binds
Substance: DDX5, human, endogenous (from UniProt P17844 1-614)

binding [5]: binds | binding [6]: binds
Substance: MYC-DDX5 (from UniProt P17844 1-614)

binding [7]: binds | binding [8]: binds | binding [3]: binds
Substance: DHX9, mouse, endogenous (from UniProt O70133 1-1380)

binding [3]: binds
Substance: MCM9, mouse, endogenous (from UniProt Q2KHI9 1-1134)
